{"source": "paper PMC9911399", "about": "“Two distinct binding modes provide the RNA-binding protein RbFox with extraordinary sequence specificity”", "binders": {"B1": {"name": "GCGAAUA (DNA:RNA)", "RNA": "GGGAGACCGGAAUUCAGAUUGUCCGCGAAUAUUAAAUCCCGUCGUAGCCACCA", "DNA 1": "CAATCTGAATTCCGGTCTCCC", "DNA 2": "TGGTGGCTACGACGGGATT"}, "B2": {"name": "CCGUGUU (DNA:RNA)", "RNA": "B1 RNA with G25C, A28U, A29G, A31U", "DNA 1": "CAATCTGAATTCCGGTCTCCC", "DNA 2": "TGGTGGCTACGACGGGATT"}, "B3": {"name": "UUAUGUC (DNA:RNA)", "RNA": "B1 RNA with G25U, C26U, G27A, A28U, A29G, A31C", "DNA 1": "CAATCTGAATTCCGGTCTCCC", "DNA 2": "TGGTGGCTACGACGGGATT"}, "B4": {"name": "UUGUGUU (DNA:RNA)", "RNA": "B1 RNA with G25U, C26U, A28U, A29G, A31U", "DNA 1": "CAATCTGAATTCCGGTCTCCC", "DNA 2": "TGGTGGCTACGACGGGATT"}, "B5": {"name": "UGCCCGA (DNA:RNA)", "RNA": "B1 RNA with G25U, C26G, G27C, A28C, A29C, U30G", "DNA 1": "CAATCTGAATTCCGGTCTCCC", "DNA 2": "TGGTGGCTACGACGGGATT"}, "B6": {"name": "CGCAUAA (DNA:RNA)", "RNA": "B1 RNA with G25C, C26G, G27C, A29U, U30A", "DNA 1": "CAATCTGAATTCCGGTCTCCC", "DNA 2": "TGGTGGCTACGACGGGATT"}, "B7": {"name": "ACGCUUG (DNA:RNA)", "RNA": "B1 RNA with G25A, A28C, A29U, A31G", "DNA 1": "CAATCTGAATTCCGGTCTCCC", "DNA 2": "TGGTGGCTACGACGGGATT"}, "B8": {"name": "ACCCGGU (DNA:RNA)", "RNA": "B1 RNA with G25A, G27C, A28C, A29G, U30G, A31U", "DNA 1": "CAATCTGAATTCCGGTCTCCC", "DNA 2": "TGGTGGCTACGACGGGATT"}, "B9": {"name": "GAUGUGG (DNA:RNA)", "RNA": "B1 RNA with C26A, G27U, A28G, A29U, U30G, A31G", "DNA 1": "CAATCTGAATTCCGGTCTCCC", "DNA 2": "TGGTGGCTACGACGGGATT"}}, "note": "Changes are numbered by the printed parent chain; changes in the protein carry UniProt numbers. The list shows a part of the results.", "data": [{"target": "T1, RBFOX1 RRM (Homo sapiens, UniProt Q9NWB1 109-208)", "T1 sequence": "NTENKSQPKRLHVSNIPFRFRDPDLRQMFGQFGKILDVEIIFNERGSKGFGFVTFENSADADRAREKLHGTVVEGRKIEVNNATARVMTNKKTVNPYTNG", "assay": "EMSA; HiTS-Eq, 1 nM pool, 10 min; buffer printed only for the single-RNA assays: 10 mM Tris pH 7.5, 150 mM NaCl, 3.4 mM EDTA, 0.001% NP-40, 30 C", "conditions": "tags: His6 N-terminal (pET28a); label: 5' 32P", "how_it_was_run": "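Relative association constants, normalised to the cognate motif, were derived by comparing read counts of each RNA species with those of the control reaction. The RNA sequenced was the free fraction, separated by 8% native PAGE after a 10 min equilibration in 50 µL of 1 nM 5′-radiolabelled RNA (7 randomized nucleotides) with increasing concentrations of purified wild-type or mutant RbFox RRM.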", "values": [{"binder": "B1", "binding signal": "0.0051 KA relative to UGCAUGU"}, {"binder": "B2", "binding signal": "0.0087 KA relative to UGCAUGU"}, {"binder": "B3", "binding signal": "0.0128 KA relative to UGCAUGU"}, {"binder": "B4", "binding signal": "0.0252 KA relative to UGCAUGU"}, {"binder": "B5", "binding signal": "0.0175 KA relative to UGCAUGU"}, {"binder": "B6", "binding signal": "0.00512 KA relative to UGCAUGU"}, {"binder": "B7", "binding signal": "0.0291 KA relative to UGCAUGU"}, {"binder": "B8", "binding signal": "0.00743 KA relative to UGCAUGU"}, {"binder": "B9", "binding signal": "0.0172 KA relative to UGCAUGU"}]}]}
